# In PubChem BioAssay AID588795 (National Center for Advancing Translational Sciences (NCATS), 2011):
# The campaign covered roughly 390,000 compounds. About 1,400 (0.36%) were called active. Inconclusive results, whose numbers are uncertain, are shown with a selection of clear calls. Calls come from the whole dose curve; as a rule, active = well fitted inhibition curve with a large enough effect; inconclusive = small, poorly fitted or top-dose-only effect; inactive = no such curve, though single readings can be large or run the other way. Potencies beside an inconclusive call are fits to weak or partial responses and may not hold up.
# Target: Flap endonuclease 1 (Homo sapiens) (UniProt P39748)
# Chain of UniProt P39748 (P39748 whole entry, looked up): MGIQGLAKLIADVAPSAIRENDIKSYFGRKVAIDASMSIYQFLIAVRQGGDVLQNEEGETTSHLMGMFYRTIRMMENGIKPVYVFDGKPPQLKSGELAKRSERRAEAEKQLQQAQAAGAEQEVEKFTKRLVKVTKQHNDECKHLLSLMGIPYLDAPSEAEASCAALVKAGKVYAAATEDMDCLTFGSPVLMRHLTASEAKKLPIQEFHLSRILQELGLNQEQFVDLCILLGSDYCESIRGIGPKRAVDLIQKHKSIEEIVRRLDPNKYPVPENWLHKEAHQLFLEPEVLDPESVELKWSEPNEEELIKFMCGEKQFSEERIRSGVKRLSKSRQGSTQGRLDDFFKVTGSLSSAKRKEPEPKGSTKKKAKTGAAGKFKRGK
# Experiment: qHTS Assay for the Inhibitors of Human Flap endonuclease 1 (FEN1). Note: nearly all actives have a fitted effect of over 65% in size.
# Details: Recombinant FEN1 flap cleavage, fluorescence, 15 min; series mostly up to 114 µM
# Summary of the method: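 Enzyme 10 nM, 15 min RT preincubation with compound; start with substrate 50 nM final; reads at 0 and 15 min; qHTS titration, four-parameter Hill fit.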
# Potency is the fitted concentration of half-maximal effect; tags give direction and shape of the fitted curve.
row,SMILES,Potency
1,CCCCCc1cc(=O)oc2c(C(CCN3CCCC(C)C3)c3ccc4c(c3)OCO4)c(OC)cc(OC)c12 (stereo unspecified),"inconclusive: 79.4 µM [inhibitor, partial curve, poor fit]"
2,CN(C(=O)C(Cl)Cl)C1CC2C=CC1C2 (stereo unspecified),inactive
3,O=S(=O)(NCc1ccc(F)cc1)c1cc(Br)ccc1Br,"inconclusive: 100 µM [inhibitor, single point]"
4,O=C(CCN1C(=O)c2ccccc2C1=O)NCc1ccc(F)cc1,inactive
5,CCN(CC)CCCNc1cc(C(F)(F)F)c(C#N)c2nc3ccccc3n12,"inconclusive: 50.1 µM [inhibitor, partial curve, poor fit]"
6,Cc1ccc(S(=O)(=O)N2[C@@H](c3ccc(Cl)cc3)C(C(=O)O)=CC[C@H]2c2ccc(Cl)c(Cl)c2)cc1,"inconclusive: 70.8 µM [inhibitor, partial curve, poor fit]"
7,CCOc1ccc(CN(CCc2ccc3c(c2)OCO3)Cc2cc(OC)c(OC)cc2OC)cc1,"inconclusive: 35.5 µM [inhibitor, partial curve, poor fit]"
8,CCCC(=O)Nc1ccc(C(=O)N/N=C/c2ccc([N+](=O)[O-])o2)cc1,inactive
9,CCc1ccc(NC(=O)CS(=O)CC(=O)Nc2ccc(F)cc2F)cc1 (stereo unspecified),inactive
10,COc1ccc(NC(=S)NNc2ccc(S(=O)(=O)Nc3ccccc3C(=O)O)cc2[N+](=O)[O-])cc1,"inconclusive: 56.2 µM [inhibitor, partial curve, poor fit]"
11,N#CC1=C2SCN(C3CCCCC3)CN2C(=O)CC1c1ccc(Cl)cc1 (stereo unspecified),"inconclusive: 8.91 µM [inhibitor, full curve, poor fit]"
12,Nc1nc2ccc(S(=O)(=O)N3CCCCC3)cc2s1,"inconclusive: 25.1 µM [inhibitor, single point]"
13,COC(=O)c1cc2occc2n1CC(=O)Nc1ccc(N(C)C)cc1,inactive
14,Cc1c(CC(=O)O)c(=O)oc2c(C)c3occ(-c4ccc(F)cc4)c3cc12,"inconclusive: 44.7 µM [inhibitor, partial curve, poor fit]"
15,Cc1cc(C)cc(NC(=O)Cc2ccc(S(=O)(=O)N3CCCC3)s2)c1,inactive
16,C[C@H]1O[C@@H](O[C@H]2CC[C@@]3(C)C(CC[C@]4(C)C3C=C[C@]35OC[C@@]6(CCC(C)(C)C[C@H]63)[C@@H](O)C[C@]54C)[C@]2(C)CO)[C@H](O)[C@@H](O[C@@H]2O[C@H](CO)[C@@H](O)[C@H](O)[C@H]2O)[C@H]1O (stereo partly specified),inactive
17,N#Cc1c(NC(=O)c2ccncc2)sc2c1CCC2,"inconclusive: 56.2 µM [inhibitor, partial curve, poor fit]"
18,O=c1[nH]c2ccccc2c2ccccc12,"inconclusive: 5.32 µM [inhibitor, full curve]"
19,CC1CC(C(F)(F)C(F)(F)F)n2nc(C(=O)O)cc2N1 (stereo unspecified),inactive
20,CCOc1ccc(OCC)c(NC(=O)C2CCCN(S(=O)(=O)c3ccc4c(c3)oc(=O)n4C)C2)c1 (stereo unspecified),inactive
21,Cc1cccc(NC(=O)COC(=O)c2ccc3c(=O)n4c(nc3c2)CCC4)c1,inactive

row,SMILES,Potency
1,COc1cccc(N2CCN(C(=O)C3CCCN(S(=O)(=O)c4ccc(Br)s4)C3)CC2)c1 (stereo unspecified),inactive
2,COc1ccccc1Nc1cc(C)nc2nc(-c3ccccc3)nn12,inactive
3,COc1ccc(C(=O)N2c3ccccc3CC2C)cc1OC (stereo unspecified),inactive
4,CCOC(=O)c1sc(NC(=O)c2c(C)nn(Cc3ccccc3)c2C)cc1C,"inconclusive: 89.1 µM [inhibitor, single point]"
5,COc1cccc(OC)c1-c1nn2c(-c3cc(-c4ccccc4)n[nH]3)nnc2s1,active: 28.2 µM
6,O=C(Cn1c(=O)n(Cc2ccco2)c(=O)c2c3c(sc21)CCCCC3)Nc1ccccc1,"inconclusive: 89.1 µM [inhibitor, partial curve, poor fit]"
7,O=C(CN1CCN(c2ccc(O)cc2)CC1)Nc1cc(S(=O)(=O)N2CCCCC2)ccc1Cl,inactive
8,Cc1ccc(NC(=O)CN2C(=O)S/C(=C\c3cc(C)n(-c4ccc(C(=O)O)cc4)c3C)C2=O)cc1,"inconclusive: 89.1 µM [inhibitor, single point]"
9,c1cncc(CNc2ncnc3ccc(-c4ccc5c(c4)OCO5)cc23)c1,"inconclusive: 50.1 µM [inhibitor, partial curve, poor fit]"
10,Cc1nn2c(-c3cccc(NC(=O)CN4CCOCC4)c3)nnc2c2ccccc12,"inconclusive: 39.8 µM [inhibitor, partial curve, poor fit]"
11,COc1ccccc1/C=C/C1(C(=O)NC2CCCC2)CC(=O)N1c1ccc(C)cc1 (stereo unspecified),"inconclusive: 79.4 µM [inhibitor, partial curve, poor fit]"
12,COc1cc(/C=C2\SC(=S)N(NS(=O)(=O)c3ccc(C)cc3)C2=O)cc(OC)c1OC,inactive
13,CCCCn1c(=O)n(-c2ccc(Br)cc2F)c(=O)c2c3c(sc21)CN(C(C)=O)CC3,"inconclusive: 89.1 µM [inhibitor, partial curve, poor fit]"
14,CC(C)C/C(O)=C/c1nc2cc(Cl)ccc2oc1=O,"inconclusive: 44.7 µM [inhibitor, partial curve]"
15,C/C(=N\NC(=O)c1cc2ccccc2cc1O)c1cccs1,"inconclusive: 79.4 µM [inhibitor, partial curve, poor fit]"
16,c1ccc(-c2cn3c(n2)CCc2ccc4cccnc4c2-3)cc1,"inconclusive: 7.08 µM [inhibitor, partial curve, poor fit]"
17,O=C(NCc1ccc(F)cc1)C1CCN(C(=O)c2ccc(-n3ccc4ccccc43)s2)CC1,"inconclusive: 79.4 µM [inhibitor, single point]"
18,C=CCN=c1scc(-c2ccco2)n1/N=C/c1ccc(O)c(O)c1O,"inconclusive: 70.8 µM [inhibitor, partial curve, poor fit]"
19,O=[N+]([O-])c1ccc(O)c(/C=N/Nc2ncnc3c2cnn3-c2ccccc2)c1,inactive
20,CCN(CC(=O)Nc1ccc(NC(C)=O)cc1)C(=O)c1cccc(-n2cccc2)c1,inactive
